Results as given in the RNAGym collection of RNA variant scans (doi:10.7554/elife.90254).
Read counts are not given, so values of variants with three or more changes are uncertain.

B1: LINE1-mini (parent)
chain: GGCAGAGCUCAACACAGCGUGGCAAAGUGGCUGUGGCUAGACUGCC

Variants of: B1
Assay: self-cleavage, relative activity (ratio to wild type); higher = more cleavage; in vitro, sequencing; the parent is a self-cleaving ribozyme
GGCAGAGCUCAACAAAGGGUCGCAAAGUUGCUGUGGCUAGAGUGCC [C15A C18G G21C G29U C42G] gave a self-cleavage of 0.01. GGCACAGCUCAACACAGCGUGGCAAAUUGCCUGUGGCUAAACUGCC [G5C G27U G30C G40A] showed a self-cleavage of 0.11. In the case of GGCAGAGCUUAACACAGCGUGGCAAAGUUGCUGUGGCUAGGCUGCC [C10U G29U A41G], the self-cleavage is reported as 0.04. In the case of GGUAGAACUAAACACAGCGUGGCAAAGUGGCUGUGGCUAGACUGCC [C3U G7A C10A], the self-cleavage is reported as 0.03. In the case of GGCAGAGCGCAACACAGCAUGGCAAGGUGGCUGUGGCUAGACUGCC [U9G G19A A26G], the self-cleavage is reported as 0.14. GGCAGAGCUCUACACAGCGUGGCCAAGUGGCUUUGGCUAGACUGCC [A11U A24C G33U] showed a self-cleavage of 0.01. In the case of GGCAGAGCUUAACACUGCGUCGCAAAGUUGCUGUGGCUAGACUGCC [C10U A16U G21C G29U], the self-cleavage is reported as 0.95. With CGCAGAUCUCAAAACAGCGUGGCAAAGUGGCUGUGCCUAGACUGCC [G1C G7U C13A G36C] the self-cleavage was 0.03. GACAGAGCUCAACACAGCAUAGCAAAGUGGCUGUUGCUAGACUGCC [G2A G19A G21A G35U] gave a self-cleavage of 0.61. With GGCAGAGCUCAACACAGCCUGGCAAAGUGCCUGUGGCUAGCCUGCC [G19C G30C A41C] the self-cleavage was 0.05. With UGCAGAGCUAAUCACAGCGUGGCAAAGUGGCUGUGUCUAGACUGCC [G1U C10A A12U G36U] the self-cleavage was 0. For GGCAUAGCUCAACAAAACGUGGCAAAGUGCCAGUGGCUAGACUGCC [G5U C15A G17A G30C U32A], the self-cleavage was 0.02. With GGCAGACCUCAACACAGCGUGGUAAAGUGGCAGUGGCUAGACUGCC [G7C C23U U32A] the self-cleavage was 0.03. Work on GGAGGAGCUCAACACAGCGUGGCAAUGUGGGUGUGGCUAGACUGCC [C3A A4G A26U C31G] yielded a self-cleavage of 0.07. For GGCACAGCUCAACACGGCGUGACAAAGUGGCUGUGGCUAGACUGCC [G5C A16G G22A], the self-cleavage was 0.04. GCUAUAGCUCAAGACAGCGUGGCAUAGUGGCUGUGGUUAGACUGCC [G2C C3U G5U C13G A25U C37U] showed a self-cleavage of 0.06. In the case of GACGGAGCUCAACAUAGCGUGGCAAAGUGGCUGUGGCUAGACUGCC [G2A A4G C15U], the self-cleavage is reported as 0.33. In the case of GGCAGAGCUCAACACAGCGUGGCAAAGACGCUGUGGCUAGAUUGCC [U28A G29C C42U], the self-cleavage is reported as 0.11. With GGCAGAUCACCACACAGCGUGGCAAAGUGGCUGUGGCUAGACUGCC [G7U U9A A11C] the self-cleavage was 0.03. With GGCAGAGCUCAACACAGGGUUGCAAAGUGGCUGGGGCUAGACUGCC [C18G G21U U34G] the self-cleavage was 0.06. With GGCAGGGCUCAACACAGCGUAGCAACGUGUCUGUGGAUAUACUGCC [A6G G21A A26C G30U C37A G40U] the self-cleavage was 0.33. Variant UGCAGAGCUCAACACAGCGUGGCAAUGUGGCUAUGGCUAGACUUUG [G1U A26U G33A G44U C45U C46G] has a self-cleavage of 0.02. GGCAGAGCUCAACAAAGCGUGGCAAAGUGGCUGCGGCUCGACUGCC [C15A U34C A39C] gave a self-cleavage of 0. Work on GGCAGAGCUCAACAUAGCGUGGCAAAGUCCCUGGGGCUAGACUUCC [C15U G29C G30C U34G G44U] yielded a self-cleavage of 0.01. Variant CGCAGAGCGUAACACAGCAUGGCACAGUGGCUGUGGGUAGACUGCC [G1C U9G C10U G19A A25C C37G] has a self-cleavage of 0.01. GGCAACGCAGAACACAGCGUGGCAAAGUGGCUGUGGCUAGACUCCC [G5A A6C U9A C10G G44C] gave a self-cleavage of 0.03. GGCAGAGCUCAACACAGCGUGGCAAAGUGUCUGUGGAUAGACCGCC [G30U C37A U43C] gave a self-cleavage of 0.02. In the case of GGCAGAGCUAAACACAGUGUGGCAAAGUGGCUGUGGCUAGACUGUC [C10A C18U C45U], the self-cleavage is reported as 0.03. Work on GGCAGAGCUCAACACAACAUGGCAAAGUGUCUGUGGCUAGACUGCC [G17A G19A G30U] yielded a self-cleavage of 1.39. GGCAGACUUAAACACAACGUGGCAAAGUGGCUGUGGCUAGACUGCC [G7C C8U C10A G17A] showed a self-cleavage of 0.01. GGUAGCGCGCAAGACAGCAUGGCAAAGUGGCUGUGGCUACCCUGCC [C3U A6C U9G C13G G19A G40C A41C] showed a self-cleavage of 0.05. For GGCAGAGCACAACACAGCGUGGCAAAGUGGAUGUGGCUAGACUGCA [U9A C31A C46A], the self-cleavage was 0.09. For GGCAUAGCUCAACACAGCGUGGUAAAGUGGCUGUGGCUAGAAUGCC [G5U C23U C42A], the self-cleavage was 1.04. In the case of GGCAGAGCUCAACAAAGCGUGGCAAAGUGUCGGUGGUUAGACUGAA [C15A G30U U32G C37U C45A C46A], the self-cleavage is reported as 0.03. Variant GGCAGAGCUCAACACAGCGUGGCAAGGUGCCUGUGGCUAGAGUGCC [A26G G30C C42G] has a self-cleavage of 0.03. GGCAGAGCUCAACACUGCGUGGCAAAGUGGCUGCGGCUAGACUGCA [A16U U34C C46A] gave a self-cleavage of 0.08. GUCAGAGAUCAACACAGCGUGGCAAAGUGGCUGUGGCUAGACUGUC [G2U C8A C45U] showed a self-cleavage of 0.21. In the case of GGCGGAGCUCAACUCAGCGUGGCAUACUGGCUGUGGCUAGACUGCC [A4G A14U A25U G27C], the self-cleavage is reported as 0.04. In the case of GGCAGAGCUCAACAGAGCGUGGCAAAGGGGCUGUGGCUAGGGUGCC [C15G U28G A41G C42G], the self-cleavage is reported as 0.01. GGCAGAGCUCAACACAGCGUGGUAAAGUGGCUAUUUCUAGCCUUAC [C23U G33A G35U G36U A41C G44U C45A] gave a self-cleavage of 0.01. For GACAGAGCUCAGCAAACCGUGGCAAAGUGGCUGUGGGUAGACUGCC [G2A A12G C15A G17C C37G], the self-cleavage was 0.02. GUCAGAGCUCAACACUGUGUGGCAAAGUGGGUGUGGCUAGACUGCC [G2U A16U C18U C31G] gave a self-cleavage of 0.01. Work on GGCAGAGCUCAACACAGCGGGGGAAAGAGGCUGUGGCUAGACUGCC [U20G C23G U28A] yielded a self-cleavage of 0.93. GGCCGAGCUCAACACAGCGUGGCAAAGUAGCUGUGUCUAGACGGCC [A4C G29A G36U U43G] showed a self-cleavage of 0. GGCAGAGCUCAACACAGCGCGGCAAAGUGGCUGUCGCCAGACUGCC [U20C G35C U38C] showed a self-cleavage of 0.02. GGCAGAGCUGAAGACAGCGUUGCAAAGUGGCUGUGGCUAGACUGCC [C10G C13G G21U] gave a self-cleavage of 0.03. Work on GGCAGAGCUCAAUACAGCGUGGCAAAGUUGCUGUGGAUAGACUGCC [C13U G29U C37A] yielded a self-cleavage of 0.06. GGCAUAGCUCAACACAGCGUGGCAAACGGGCUGUGGCUAGACUGCC [G5U G27C U28G] gave a self-cleavage of 0.06. For GGCAGAGGUCCACACAGCGUGGCAAAGUGGCUGUAGCUAGACUGCC [C8G A11C G35A], the self-cleavage was 0.04. For GGCAGGGCUCAACAGAGCGUGACAAAGUGGCAGUGGCUAGACUGCC [A6G C15G G22A U32A], the self-cleavage was 0.02. Work on GGCAGACCUUAACACAGCGUGGCAAAGAGGCUGUGGCUAGACUGCC [G7C C10U U28A] yielded a self-cleavage of 0. For GGCAGAGCUCCACACAGCGUGGCGAAAUGGCUUUGUCUAGUCUGUC [A11C A24G G27A G33U G36U A41U C45U], the self-cleavage was 0.01. GGCAUAGCUCAACACAGCGUGGCCAAGUGUCUGUGGCUAGAGUGCC [G5U A24C G30U C42G] showed a self-cleavage of 0.03. Variant GGCAGAGUUCAACACAGCGUGGUAAAGUGGCUGUGGCUCGACUGCC [C8U C23U A39C] has a self-cleavage of 0.18. GGCAGAGCUCAACACAGCGUGGCCAAGUGGCUCUGGUCAGACUGCC [A24C G33C C37U U38C] showed a self-cleavage of 0.07. In the case of GGCAUAGCUCAACACAGCUUGGCAAAGGGGCUGUGGCUAGGCUACC [G5U G19U U28G A41G G44A], the self-cleavage is reported as 0.01.
